# Article PMC11999613, “Differential association of EphA2 intracellular regions in biased signaling” (The Journal of Biological Chemistry, 2025)
# B1: EphA2 ΔSAM fused at the C terminus to a fluorescent protein via a flexible (GGS)5 linker (receptor)
# chain: [left out - about 500 residues]IGGVAVGVVLLLVLAGVGFFIHRRRKNQRARQSPEDVYFSKSEQLKPLKTYVDPHTYEDPNQAVLKFTTEIHPSCVTRQKVIGAGEFGEVYKGMLKTSSGKKEVPVAIKTLKAGYTEKQRVDFLGEAGIMGQFSHHNIIRLEGVISKYKPMMIITEYMENGALDKFLREKDGEFSVLQLVGMLRGIAAGMKYLANMNYVHRDLAARNILVNSNLVCKVSDFGLSRVLEDDPEATYTTSGGKIPIRWTAPEAISYRKFTSASDVWSFGIVMWEVMTYGERPYWELSNHEVMKAINDGFRLPTPMDCPSAIYQLMMQCWQQERARRPKFADIVSILDKLIRAPDSLKTLADFDPRVSIRLPSTSGSVGIPI
# notes: EphA2 receptor tyrosine kinase lacking […], which include the SAM domain ([…]); FIF used the eYFP form alone; FSI-FRET used cells co-transfected with the mTurquoise (donor) and eYFP (acceptor) forms; Vector pcDNA3.1(+); also called EphA2 ΔSAM-eYFP; EphA2 ΔSAM-mTurquoise; source: HEK293T, transiently transfected, in the plasma membrane of the cells; not shown: eYFP or mTurquoise (after a 15 amino …)
# B2: EphA2 ΔCyt fused at the C terminus to a fluorescent protein via a flexible (GGS)5 linker (domain or fragment)
# chain: not shown
# notes: EphA2 receptor tyrosine kinase truncated at amino acid 568 (lacks […]); keeps the extracellular region, the transmembrane helix ([…]) and a polar, basic stretch (559-568); FIF used the eYFP form alone; FSI-FRET used cells co-transfected with the mTurquoise (donor) and eYFP (acceptor) forms; Vector pcDNA3.1(+); also called EphA2 ΔCyt-eYFP; EphA2 ΔCyt-mTurquoise; source: HEK293T, transiently …
# What was measured:
# [1] = target: the molecule itself; assay: fluorescence intensity fluctuation (FIF) spectrometry; no ligand; eYFP-tagged EphA2 variant in the plasma membrane of live, serum-starved HEK293T cells; confocal imaging; molecular brightness compared with a dimer control (TrkA + NGF)
# [2] = target: the molecule itself; assay: fluorescence intensity fluctuation (FIF) spectrometry; with 200 nM m-ephrinA1; eYFP-tagged EphA2 variant in the plasma membrane of live, serum-starved HEK293T cells; confocal imaging; molecular brightness compared with a dimer control (TrkA + NGF)
Protein,stoichiometry N [1],stoichiometry N [2]
B1,2,> 2
B2,2,> 2
